Article PMC5762908 (Scientific Reports, 2018)

Experiments:
[1] = system: HCT116 (human colon carcinoma)
B16-F10 (mouse melanoma) [2] = system: B16-F10 (mouse melanoma)
HCT116 cells [3] = settings: HCT116, trypan blue; for Reduction of the number of viable cells: 4 μM; for Number of viable cells (in words): 24 and 48 h, DOX 1 µM, OXA 2.5 µM
Experimental: TBE assay was used to confime the cytotoxic effect of the complex tested. The number of viable cells and non-viable cells (take up trypan blue) were counted. Briefly, 90 μL was removed from the cell suspension and 10 μL of trypan blue (0.4%) was added. Cell counting was performed using a light microscope with a hemocytometer filled with an aliquot of the homogenized cell suspension.

[4] = system: K-562 (human chronic myelogenous leukemia); experiment: cells; settings: K562, 72 h, read-out: IC50 in µM, K562
[5] = system: HL-60 (human promyelocytic leukemia); experiment: cells; settings: HL-60, 72 h, read-out: IC50 in µM, HL-60
[6] = system: K-562 (human chronic myelogenous leukemia)
[7] = system: SCC-9 (human oral squamous cell carcinoma); experiment: cells; settings: SCC-9, 72 h, read-out: IC50 in µM, SCC9
HCT116 cells [8] = settings: for DNA content (%) G0/G1 / DNA content (%) G2/M / DNA content (%) Sub-G0/G1 / DNA content (%) S: HCT116 cells
[9] = system: MCF7 (human breast carcinoma); experiment: cells; settings: MCF7, 72 h, read-out: IC50 in µM, MCF7
[10] = system: HepG2 (human hepatocellular carcinoma)
HCT116 cells [11] = experiment: Annexin V-FITC/PI staining assay, flow cytometry; format: cell-based, human; settings: HCT116, annexin V-FITC/PI, 24 and 48 h; 5-FU at 4 μM
Experimental: For apoptosis detection, we used the FITC Annexin V Apoptosis Detection Kit I (BD Biosciences), and the analysis was performed according to the manufacturer’s instructions. The cell fluorescence was determined by flow cytometry as described above. The protection assays using the caspase-3 inhibitor (Z-DEVD-FMK, BD Biosciences) and the antioxidant NAC (Sigma-Aldrich Co.) were performed. In brief, the cells were pre-treated for 2 h with 50 µM Z-DEVD-FMK and for 1 h with 5 mM NAC, followed by incubation with 4 µM of the complex for 48 h. The cells were then trypsinized and the FITC Annexin V Apoptosis Detection assay was conducted as described above.

[12] = system: cancer multicellular spheroids formed from HCT116 cells; experiment: 3D multicellular spheroids culture, alamar blue assay; format: cell-based, human; settings: 3D multicellular spheroids, alamar blue assay, 72 h
Experimental: Cell viability was quantified using the alamar blue assay, according to Ahmed et al.[28]. Cells were inserted in 96-well plates for all experiments (7 × 10^4 cells/mL for adherent cells or 3 × 10^5 cells/mL for suspended cells in 100 μL of medium). After 24 h, the complex was dissolved in dimethyl sulfoxide (DMSO, Sigma-Aldrich co.) and added to each well and incubated for 72 h. […] Four (for cell lines) or 24 h (for PBMCs) before the end of incubation, 20 μL of a stock solution (0.312 mg/mL) of the alamar blue (resazurin, Sigma-Aldrich Co.) were added to each well. Absorbance at 570 nm and 600 nm was measured using the SpectraMax 190 Microplate Reader (Molecular Devices, Sunnyvale, CA, EUA), and the drug effect was quantified as the percentage of control absorbance.
Briefly, 100 μL of a solution of cells (0.5 × 10^6 cells/mL) were inserted in 96-well plate with a cell-repellent surface (Greiner Bio-One; Kremsmünster, Austria) and cultured in complete medium plus 3% matrigel (BD Biosciences; San Jose, CA, EUA). Spheroids with stable structures had formed after three days. Then, the spheroids were exposed to a range of drug concentrations for 72 h, after which the cell viability was quantified by alamar blue assay as described above.

[13] = system: SCC-9 (human oral squamous cell carcinoma)
[14] = system: HSC-3 (human oral squamous cell carcinoma)
[15] = system: HepG2 (human hepatocellular carcinoma); experiment: cells; settings: HepG2, 72 h, read-out: IC50 in µM, HepG2
B16-F10 (mouse melanoma) [16] = experiment: cells; settings: B16-F10, 72 h, read-out: IC50 in µM, B16-F10
HCT116 cells [17] = experiment: Mitochondrial transmembrane potential, rhodamine 123, flow cytometry; format: cell-based, human; settings: HCT116, rhodamine 123, 24 h; 5-FU at 4 μM
[18] = system: HL-60 (human promyelocytic leukemia)
[19] = system: caspase-3 in HCT116 cells; experiment: Caspase-3 activation assay, colorimetric, DEVD-pNA substrate; format: cell-based, human; settings: HCT116, 48 h; 5-FU at 4 μM
[20] = system: MCF7 (human breast carcinoma)
[21] = system: HCT116 (human colon carcinoma); experiment: cells; settings: HCT-116, 72 h, read-out: IC50 in µM, HCT116
[22] = system: HSC-3 (human oral squamous cell carcinoma); experiment: cells; settings: HSC-3, 72 h, read-out: IC50 in µM, HSC3

| Structure (SMILES) | Selectivity index (SI) ([1]; SI = IC50[MRC-5]/IC50[HCT116]) | Selectivity index (SI) (B16-F10 (mouse melanoma) [2]; SI = IC50[MRC-5]/IC50[B16-F10]) | Selectivity index (SI) (B16-F10 (mouse melanoma) [2]; SI = IC50[PBMC]/IC50[B16-F10]) | IC50 [4] [µM] | IC50 [5] [µM] | Selectivity index (SI) ([6]; SI = IC50[MRC-5]/IC50[K-562]) | Selectivity index (SI) ([6]; SI = IC50[PBMC]/IC50[K-562]) | IC50 [7] [µM] | IC50 [9] [µM] | Selectivity index (SI) ([10]; SI = IC50[MRC-5]/IC50[HepG2]) | Selectivity index (SI) ([10]; SI = IC50[PBMC]/IC50[HepG2]) | IC50 ([12]; Homo sapiens, HCT-116) [µM] | Selectivity index (SI) ([13]; SI = IC50[MRC-5]/IC50[SCC-9]) | Selectivity index (SI) ([13]; SI = IC50[PBMC]/IC50[SCC-9]) | Selectivity index (SI) ([14]; SI = IC50[MRC-5]/IC50[HSC-3]) | Selectivity index (SI) ([14]; SI = IC50[PBMC]/IC50[HSC-3]) | IC50 [15] [µM] | IC50 (B16-F10 (mouse melanoma) [16]) [µM] | Selectivity index (SI) ([18]; SI = IC50[MRC-5]/IC50[HL-60]) | Selectivity index (SI) ([18]; SI = IC50[PBMC]/IC50[HL-60]) | further results |
| --- | --- | --- | --- | --- | --- | --- | --- | --- | --- | --- | --- | --- | --- | --- | --- | --- | --- | --- | --- | --- | --- |
| O=c1[nH]cc(F)c(=O)[nH]1 [5-FU, 5-fluorouracil] | 14.1 | 16.5 | 22.3 | 19.4 | 12.6 | 3 | 4 | 127 | 14.1 | 44.5 | 60 | > 192 | 0.5 | 0.6 | 3.6 | 4.8 | 1.3 | 3.5 | 4.6 | 6.2 | Selectivity index (SI) ([1]; SI = IC50[PBMC]/IC50[HCT116]): 19; Reduction of the number of viable cells (HCT116 cells [3]; 24 h): 56.6%; Reduction of the number of viable cells (HCT116 cells [3]; 48 h): 73.2%; DNA content (%) G0/G1 (HCT116 cells [8]; 24 h incubation, 4 µM): 37.7 ± 1.8%; DNA content (%) G2/M (HCT116 cells [8]; 24 h incubation, 4 µM): 16.9 ± 1.1%; DNA content (%) Sub-G0/G1 (HCT116 cells [8]; 24 h incubation, 4 µM): 11.5 ± 4.6%; DNA content (%) G0/G1 (HCT116 cells [8]; 48 h incubation, 4 µM): 28.9 ± 3.9 %; DNA content (%) G2/M (HCT116 cells [8]; 48 h incubation, 4 µM): 17.3 ± 1.2%; DNA content (%) S (HCT116 cells [8]; 48 h incubation, 4 µM): 31.8 ± 1.5 %; DNA content (%) Sub-G0/G1 (HCT116 cells [8]; 48 h incubation, 4 µM): 18.1 ± 3.0%; Early and late apoptotic cells (HCT116 cells [11]): did not induce increasing in the early and late apoptosis; Mitochondrial membrane potential (depolarization) (HCT116 cells [17]): not affected; Caspase-3 activation [19]: not affected; Selectivity index (SI) ([20]; SI = IC50[MRC-5]/IC50[MCF7]): 4.1; Selectivity index (SI) ([20]; SI = IC50[PBMC]/IC50[MCF7]): 5.5; IC50 [21]: 4.1 µM; IC50 [22]: 16.3 µM |
| COc1cccc2c1C(=O)c1c(O)c3c(c(O)c1C2=O)C[C@@](O)(C(=O)CO)C[C@@H]3O[C@H]1C[C@H](N)[C@H](O)[C@H](C)O1 [DOX, Doxorubicin] | 3.2 | 8 | 25.5 | 0.2 | 0.5 | 8 | 25.5 | 0.4 | 1.4 | 5.3 | 17 | 3.5 | 4 | 12.8 | 2 | 6.4 | 0.3 | 0.2 | 3.2 | 10.2 | Number of viable cells (in words) (HCT116 cells [3]): reduced the number of viable cells; DNA content (%) G0/G1 (HCT116 cells [8]; 24 h incubation, 1 µM): 28.0 ± 6.3%; DNA content (%) G2/M (HCT116 cells [8]; 24 h incubation, 1 µM): 44.1 ± 3.4 %; DNA content (%) S (HCT116 cells [8]; 24 h incubation, 1 µM): 10.0 ± 2.5%; DNA content (%) Sub-G0/G1 (HCT116 cells [8]; 24 h incubation, 1 µM): 9.7 ± 2.5%; DNA content (%) G0/G1 (HCT116 cells [8]; 48 h incubation, 1 µM): 22.5 ± 4.0 %; DNA content (%) G2/M (HCT116 cells [8]; 48 h incubation, 1 µM): 44.2 ± 4.4 %; DNA content (%) S (HCT116 cells [8]; 48 h incubation, 1 µM): 14.9 ± 2.5%; DNA content (%) Sub-G0/G1 (HCT116 cells [8]; 48 h incubation, 1 µM): 18.3 ± 2.5%; Selectivity index (SI) ([20]; SI = IC50[MRC-5]/IC50[MCF7]): 1.1; Selectivity index (SI) ([20]; SI = IC50[PBMC]/IC50[MCF7]): 3.6; IC50 [21]: 0.5 µM; IC50 [22]: 0.8 µM |
| O=C1[O][Pt]2([NH][C@@H]3CCCC[C@H]3[NH]2)[O]C1=O [OXA, oxaliplatin] |  | 2 | 17.7 |  |  | 1.2 | 10.3 |  |  | 0.9 | 8.3 |  |  |  |  |  |  |  | 2.8 | 24.8 | IC50 ([1]; read-out: IC50 in µM, HCT116, alamar blue assay, 72 h incubation, 2D culture): 4.3 µM; IC50 (B16-F10 (mouse melanoma) [2]; read-out: IC50 in µM, B16-F10, alamar blue assay, 72 h incubation, 2D culture): 0.7 µM; Number of viable cells (in words) (HCT116 cells [3]): reduced the number of viable cells; IC50 ([6]; read-out: IC50 in µM, K562, alamar blue assay, 72 h incubation, 2D culture): 1.2 µM; Cell cycle phase accumulation / arrest, in words (HCT116 cells [8]): cell cycle arrest at the phase G2/M; DNA content (%) G0/G1 (HCT116 cells [8]; 24 h incubation, 2.5 µM): 32.4 ± 3.7%; DNA content (%) G2/M (HCT116 cells [8]; 24 h incubation, 2.5 µM): 41.6 ± 1.6 %; DNA content (%) S (HCT116 cells [8]; 24 h incubation, 2.5 µM): 13.5 ± 3.1%; DNA content (%) Sub-G0/G1 (HCT116 cells [8]; 24 h incubation, 2.5 µM): 8.8 ± 3.5%; DNA content (%) G0/G1 (HCT116 cells [8]; 48 h incubation, 2.5 µM): 36.2 ± 2.6%; DNA content (%) G2/M (HCT116 cells [8]; 48 h incubation, 2.5 µM): 38.0 ± 3.4%; DNA content (%) S (HCT116 cells [8]; 48 h incubation, 2.5 µM): 7.6 ± 0.4%; DNA content (%) Sub-G0/G1 (HCT116 cells [8]; 48 h incubation, 2.5 µM): 17.7 ± 1.9%; IC50 ([10]; read-out: IC50 in µM, HepG2, alamar blue assay, 72 h incubation, 2D culture): 1.5 µM; IC50 [12]: 4.6 µM; IC50 ([14]; read-out: IC50 in µM, HSC3, alamar blue assay, 72 h incubation, 2D culture): 3.4 µM; IC50 ([18]; read-out: IC50 in µM, HL-60, alamar blue assay, 72 h incubation, 2D culture): 0.5 µM; IC50 ([20]; read-out: IC50 in µM, MCF7, alamar blue assay, 72 h incubation, 2D culture): 6 µM |

Where two headings read alike, the source gives them in different places.
